Laboratory results taken from article PMC4336329 (PLoS ONE, 2015).
Among all 310,000 compounds or so, about 2,200 (0.71%) showed an effect of 50% or more. Effects have a minus sign here. The list shows a part of the results.

Molecular target: human ether-à-go-go-related gene (hERG) potassium channel (human, UniProt Q12809)
Test: primary screen, population patch clamp on CHO cells stably expressing hERG

Chain of human ether-à-go-go-related gene (hERG) potassium channel (Q12809 whole entry, looked up): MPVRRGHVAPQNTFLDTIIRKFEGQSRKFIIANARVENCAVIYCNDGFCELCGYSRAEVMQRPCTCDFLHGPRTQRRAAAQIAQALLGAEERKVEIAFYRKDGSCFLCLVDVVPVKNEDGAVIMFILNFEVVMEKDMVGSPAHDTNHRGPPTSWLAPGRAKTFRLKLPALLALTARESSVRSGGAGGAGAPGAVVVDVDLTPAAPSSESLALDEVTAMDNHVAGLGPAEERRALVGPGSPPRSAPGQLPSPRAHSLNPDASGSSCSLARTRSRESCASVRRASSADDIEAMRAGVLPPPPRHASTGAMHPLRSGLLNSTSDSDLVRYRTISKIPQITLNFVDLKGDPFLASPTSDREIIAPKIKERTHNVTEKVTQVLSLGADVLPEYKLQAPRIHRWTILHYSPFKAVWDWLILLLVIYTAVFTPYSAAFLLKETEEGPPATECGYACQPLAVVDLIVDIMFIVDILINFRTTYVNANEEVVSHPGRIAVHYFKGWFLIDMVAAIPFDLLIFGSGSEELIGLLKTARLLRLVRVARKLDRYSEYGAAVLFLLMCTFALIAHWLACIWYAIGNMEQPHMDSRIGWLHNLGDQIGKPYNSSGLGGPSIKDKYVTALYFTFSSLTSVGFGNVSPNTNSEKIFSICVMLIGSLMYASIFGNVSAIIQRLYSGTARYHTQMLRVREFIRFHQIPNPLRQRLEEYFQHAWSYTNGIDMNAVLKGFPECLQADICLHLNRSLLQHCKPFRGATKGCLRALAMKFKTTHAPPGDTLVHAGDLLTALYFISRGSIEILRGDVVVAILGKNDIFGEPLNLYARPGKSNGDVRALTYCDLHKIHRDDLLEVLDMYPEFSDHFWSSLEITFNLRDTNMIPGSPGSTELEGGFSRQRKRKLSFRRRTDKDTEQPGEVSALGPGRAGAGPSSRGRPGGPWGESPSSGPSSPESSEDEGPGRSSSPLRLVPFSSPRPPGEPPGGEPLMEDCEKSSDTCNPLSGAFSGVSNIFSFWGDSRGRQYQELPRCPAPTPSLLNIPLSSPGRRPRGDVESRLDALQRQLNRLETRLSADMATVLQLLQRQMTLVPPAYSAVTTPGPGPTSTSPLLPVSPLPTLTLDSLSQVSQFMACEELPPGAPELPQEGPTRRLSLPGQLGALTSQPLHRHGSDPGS

SMILES	hERG current change (%, negative = inhibition) at 1uM
Cn1c(=O)[nH]c(=O)c2cc(C(=O)c3cc(F)ccc3O)cnc21	15.1%
CC(NC(=O)c1cc(=O)[nH]c2ccccc12)c1ccc(F)cc1F (stereo not shown)	17.9%
CCOC(=O)[C@H]1[C@H]2COc3ccc(C)cc3[C@@H]2N2C(=O)c3ccc(F)cc3NC(=O)[C@@]12C	-1.08%
O=C(Nc1cccc(F)c1)c1ccc(S(=O)(=O)N2CCCC2)cc1	2.32%
COCCCNC(=O)Cn1ccc(NC(=O)OCc2ccccc2)nc1=O	9.66%
O=C(O)CCCC(=O)NCCCCc1ccccc1	10.8%
Cc1ccc(C(=O)CN2C(=O)NC3(CCc4ccccc43)C2=O)s1 (stereo not shown)	8.48%
O=C1C(SC(F)(F)C(F)F)=C(C(F)(F)F)OC2C3C=CC(C3)C12 (stereo not shown)	9.97%
CC(=O)c1cccc(S(=O)(=O)Nc2ccc3nc(C)sc3c2)c1	7.97%
CCCC(=O)N(Cc1cc(=O)[nH]c2ccccc12)c1ccc(C)cc1	5.97%
O=C1/C(=C\c2cccnc2)N2CCC1CC2	14.9%
O=C(Oc1ccc(-n2cnnn2)cc1)c1ccco1	8.16%
Cc1ccc(S(=O)(=O)Nc2cccc(/C=C/C(=O)O)c2)cc1	17%
O=C(O)CCN1C(=O)/C(=C2\C(=O)N(Cc3ccc(F)cc3)c3ccccc32)SC1=S	22.2%
COc1cc(C)c(C(=O)CC(=O)c2c(C)cc(OC)cc2C)c(C)c1	8.11%
COc1ccccc1C(=O)NC(CCSC)C(=O)NCC(c1ccco1)N(C)C (stereo not shown)	-12.3%
O=C(O)c1cc(Cl)c(Cl)cc1C(=O)NCc1ccco1	16.4%
CCCCNC(=O)CSc1nc(CCC)nc2ccccc12	16.7%
Cc1nc2ccccc2nc(C)c1=NOCc1ccccc1Cl	6.22%
COc1ccc(Nc2nc(Cl)nc(NCc3ccco3)n2)c(OC)c1	14.2%
CC(C)OC(=O)C1C(=O)CC(C)(O)C(C(=O)OC(C)C)C1c1ccc(F)cc1 (stereo not shown)	9.57%
O=C(COc1ccc2c3c(c(=O)oc2c1)CCC3)NCc1ccccn1	14.6%

SMILES	hERG current change (%, negative = inhibition) at 1uM
NC(=O)CSc1ccc(S(=O)(=O)N2CCCCC2)cn1	5.73%
NC(=O)C1CCCN(C(=O)CCc2nnc(C3(c4ccc(Cl)cc4)CCC3)o2)C1 (stereo not shown)	9.52%
O=C(CSc1nnc(NC(=O)c2ccccc2Cl)s1)Nc1ccc2c(c1)oc1ccccc12	15.3%
CCOc1ccc(N(CC(=O)Nc2ccc(C)cc2C)S(C)(=O)=O)cc1	13.5%
CCOc1ccc(C(=O)Nc2ccccc2-c2ccccc2)cc1Cl	12.6%
CC[C@]1(c2ccccc2)C(=O)N(C(=O)OC)N1C(=O)OC	22.5%
COc1ccccc1C1CCN(C(=O)c2ccc(C(C)(C)C)cc2)CC1	18.3%
COCCCN1C(=O)C(=O)/C(=C(/O)c2ccc(S(=O)(=O)N3CCCCC3)cc2)C1c1cccc(OC)c1 (stereo not shown)	2.22%
O=C(COc1ccc(/C=N/NC(=O)c2ccccc2O)cc1)Nc1ccc([N+](=O)[O-])cc1	16.3%
Cc1nnc2c(SC(C)C)nc3ccccc3n12	5.53%
COc1ccc(S(=O)(=O)N(C)c2ccc(OCC(=O)Nc3cc(C)on3)cc2)cc1	2.34%
CCCCCOC(=O)Cn1c(SCC(=O)Nc2ccccc2)nc2c1c(=O)[nH]c(=O)n2C	-5.18%
COc1ccc(NS(=O)(=O)c2cccc(C(=O)NCC(c3ccccc3)N(C)C)c2)cc1 (stereo not shown)	6.81%
CN(C)S(=O)(=O)c1cccc(C(=O)Nc2cc(Cl)cc(Cl)c2)c1	8.63%
CCC(C)Sc1cc(C)c(C#N)c2nc3ccccc3n12 (stereo not shown)	5.61%
CN(C)S(=O)(=O)c1ccc(NC(=O)CN2CCC(Cc3ccccc3)CC2)cc1	3.5%
COc1cc([N+](=O)[O-])ccc1NC(=S)NNC(=O)c1ccc2c(c1)OCO2	14.4%
Nc1nc(=S)c2ncn(C3CCCC3)c2[nH]1	13.8%
N#Cc1ccc(C23CC4(C2)[C@H](CN(CC2CCCCC2)[C@@H]4c2ccccc2)C3c2ccc(Cl)nc2)cc1 (stereo partly shown)	6.07%
CCCCNS(=O)(=O)c1ccc(NC(=O)Cc2ccc(OC)cc2)cc1	7.06%
O=C(CCn1c(=O)sc2ccccc21)NCc1ccccc1	7.66%
COc1cc(/C=C/c2sc3ccccc3[n+]2CCCS(=O)(=O)[O-])ccc1O	-0.841%

SMILES	hERG current change (%, negative = inhibition) at 1uM
CC(C)(C)NC(=O)C(c1ccncc1)N(C(=O)Cn1nnc(-c2cccs2)n1)C1CCCCC1 (stereo not shown)	-0.931%
COc1cccc(/C=C/C(=O)N2CCN(c3ccccn3)CC2)c1	6.36%
Cc1cccc(N2CC(C(=O)Nc3ccc4c(c3)OCCO4)CC2=O)c1C (stereo not shown)	14.5%
O=C(CCCCCN1C(=O)c2cccc3cccc(c23)C1=O)NCCO	9.8%
O=S1OCCN1c1ccccc1 (stereo not shown)	13.2%
CCCn1c(=O)c(C(=O)NCCc2ccccc2)c(O)c2ccccc21	13.1%
Cc1cc[n+](CCC(=O)O)c2ccccc12.[Br-]	12.5%
Cc1cc(C)n(C2CC(=O)N(c3ccc(C)c(Cl)c3)C2=O)n1 (stereo not shown)	16.2%
COc1ccc(NC(=O)CN2CCC(NC(=O)c3ccco3)CC2)c([N+](=O)[O-])c1	4.57%
COc1ccccc1C1C(C#N)=C(N)Oc2cc(C)n(Cc3ccccn3)c(=O)c21 (stereo not shown)	3.9%
CCCCNC(=O)Nc1nnc(C(C)(C)C)s1	3.44%
COC(=O)c1cc2oc(C)cc2n1CC(=O)Nc1cc(C)cc(C)c1	16%
Cc1ccc(NC(=O)c2nc[nH]c2C(=O)Nc2ccc(C)cc2)cc1	-1.71%
O=C(CC12CC3CC(CC(C3)C1)C2)N1CCOCC1	6.44%
COc1ccc(-c2csc(NC(=S)NC(=O)c3ccc4ccccc4c3)n2)cc1OC	20.3%
O=C(CCS(=O)(=O)c1cccs1)Nc1ccc(C(=O)NC2CCN(Cc3ccccc3)CC2)cc1	7.84%
C=CCNC(=O)c1ccc(Sc2ccc(C)cc2)c([N+](=O)[O-])c1	14.6%
COc1cccc(OC)c1C(=O)NC(=S)NNC(=O)[C@H]1C[C@@H]1c1ccccc1	8.39%
O=[N+]([O-])c1ccc(-n2nncc2-c2ccc(Cl)cc2)cc1	-60.4%
O=C1NC(=S)N/C1=C\c1ccccc1OCc1ccc(C(=O)O)cc1	3.03%
CC(C)(C)NC(=O)C(c1ccc(F)cc1)N(CC1CCCO1)C(=O)c1csnn1 (stereo not shown)	28%
COc1ccc2c(c1)OC[C@H]1[C@H]2N2C(=O)CN(C)C(=O)[C@@]2(C)[C@H]1c1ccccc1	13.5%

SMILES	hERG current change (%, negative = inhibition) at 1uM
CC(NC(=O)CN1C(=O)NC(c2ccccc2)(c2ccccc2)C1=O)c1cccs1 (stereo not shown)	19.7%
CCCCOc1ccc(OCCNC(=O)c2ccco2)cc1	14.6%
CCCCOc1ccc(C(=O)NCC(=O)NCc2ccccn2)cc1	21.4%
Cn1c(COc2cccc3ccccc23)nnc1SCC(=O)OC1CCCCC1	8.98%
CC1(c2ccc(Cl)cc2)NC(=O)CS1 (stereo not shown)	15.4%
N#Cc1c(-c2ccccc2)cc(-c2ccccc2)nc1SCCC(=O)O	13.9%
CCc1cc2c(N3CCN(c4nnc(CC)s4)CC3)ncnc2s1.Cl	-28.8%
CCc1noc(C)c1C(=O)Nc1nnc(C2CCCCC2)s1	3.54%
COc1ccc(N(C)S(=O)(=O)c2cccc(C(=O)NCC(c3cccs3)N(C)C)c2)cc1 (stereo not shown)	-7.53%
FC(F)(F)c1cccc(NC(=S)Nc2ccc(Cl)cc2Cl)c1	17.7%
COc1cc(OC)c(C(=O)NC2CC(C)(C)NC(C)(C)C2)cc1OC	3.94%
Cc1oc(C(C)(C)C)cc1C(N)=O	11.7%
Nc1nnc(SCc2cccnc2)s1	5.25%
O=C1CC(c2ccc(Cl)cc2)CC(O)=C1C=NCc1ccc(Cl)c(Cl)c1 (stereo not shown)	9.59%
CCCc1[nH][nH]c(=O)c1C(c1ccc(Br)cc1)C(C#N)C#N (stereo not shown)	3.48%
O=C(Nc1ccc2nc(-c3ccc4nc[nH]c4c3)[nH]c2c1)c1cccs1	17.2%
CSc1ccc(-c2nc(CSCC(=O)NCCCN3CCCC3=O)c(C)o2)cc1	-0.17%
CC1=C(C)CC(C(=O)NC(C)CCc2ccccc2)C(C(=O)O)C1 (stereo not shown)	10.2%
CCOc1ccc(NS(=O)(=O)c2ccc3ncsc3c2)cc1	12.1%
CCc1c(C)c2ccc(OCC(=O)OC(C)C)c(C)c2oc1=O	8.02%
Cc1ccc(N/N=C2\CC(=O)c3ccccc32)cc1Cl	17.1%
N#Cc1nc(Cc2cccc3ccccc23)oc1NCc1ccc2c(c1)OCO2	-6.62%
